These are yes or no findings as the source states them, for the method shown. In cells and extracts the contact can be indirect. Some binding calls cover weakened binding; strength is not graded here. Sequences can lack the tags named with a protein.

Experiment in all cases: co-IP; ANKLE2-3XFLAG complexes immunoprecipitated from lysates of doxycycline-treated transduced HeLa cells on Dynabead Protein G beads conjugated to mouse anti-FLAG, overnight at 4°C; lysis buffer 50 mM Tris-HCl pH 7.4, 150 mM NaCl, 1% Triton X-100, protease and phosphatase inhibitors, nuclease; blots for PP2A and total BAF
The target in assay [1] is T1, Δ2-53-ANKLE2-3XFLAG (human) (UniProt Q86XL3).
T1 sequence: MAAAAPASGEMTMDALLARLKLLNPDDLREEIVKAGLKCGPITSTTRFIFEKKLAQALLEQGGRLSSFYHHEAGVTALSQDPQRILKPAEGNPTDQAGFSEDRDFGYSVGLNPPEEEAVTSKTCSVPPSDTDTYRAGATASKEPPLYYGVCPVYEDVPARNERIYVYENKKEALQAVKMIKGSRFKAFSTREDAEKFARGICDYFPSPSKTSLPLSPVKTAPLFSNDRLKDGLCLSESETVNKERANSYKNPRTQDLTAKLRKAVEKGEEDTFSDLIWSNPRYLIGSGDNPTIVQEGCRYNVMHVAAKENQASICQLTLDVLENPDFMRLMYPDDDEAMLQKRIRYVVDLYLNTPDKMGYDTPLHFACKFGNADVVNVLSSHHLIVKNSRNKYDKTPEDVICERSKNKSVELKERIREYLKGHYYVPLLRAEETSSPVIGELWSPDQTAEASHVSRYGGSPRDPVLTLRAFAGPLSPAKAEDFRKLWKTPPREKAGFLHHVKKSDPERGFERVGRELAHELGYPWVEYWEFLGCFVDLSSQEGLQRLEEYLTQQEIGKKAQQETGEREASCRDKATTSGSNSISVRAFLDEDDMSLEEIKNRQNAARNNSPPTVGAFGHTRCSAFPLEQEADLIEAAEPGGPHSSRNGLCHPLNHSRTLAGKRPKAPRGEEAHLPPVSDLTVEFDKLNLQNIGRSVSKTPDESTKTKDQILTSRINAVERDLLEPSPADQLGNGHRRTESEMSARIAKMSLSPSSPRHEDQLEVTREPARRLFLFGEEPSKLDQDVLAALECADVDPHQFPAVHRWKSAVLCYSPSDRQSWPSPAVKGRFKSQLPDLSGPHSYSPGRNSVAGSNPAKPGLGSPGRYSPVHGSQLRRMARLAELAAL

Assay [2] concerns the target T2, Δ2-63-ANKLE2-3XFLAG (human) (UniProt Q86XL3).
T2 sequence: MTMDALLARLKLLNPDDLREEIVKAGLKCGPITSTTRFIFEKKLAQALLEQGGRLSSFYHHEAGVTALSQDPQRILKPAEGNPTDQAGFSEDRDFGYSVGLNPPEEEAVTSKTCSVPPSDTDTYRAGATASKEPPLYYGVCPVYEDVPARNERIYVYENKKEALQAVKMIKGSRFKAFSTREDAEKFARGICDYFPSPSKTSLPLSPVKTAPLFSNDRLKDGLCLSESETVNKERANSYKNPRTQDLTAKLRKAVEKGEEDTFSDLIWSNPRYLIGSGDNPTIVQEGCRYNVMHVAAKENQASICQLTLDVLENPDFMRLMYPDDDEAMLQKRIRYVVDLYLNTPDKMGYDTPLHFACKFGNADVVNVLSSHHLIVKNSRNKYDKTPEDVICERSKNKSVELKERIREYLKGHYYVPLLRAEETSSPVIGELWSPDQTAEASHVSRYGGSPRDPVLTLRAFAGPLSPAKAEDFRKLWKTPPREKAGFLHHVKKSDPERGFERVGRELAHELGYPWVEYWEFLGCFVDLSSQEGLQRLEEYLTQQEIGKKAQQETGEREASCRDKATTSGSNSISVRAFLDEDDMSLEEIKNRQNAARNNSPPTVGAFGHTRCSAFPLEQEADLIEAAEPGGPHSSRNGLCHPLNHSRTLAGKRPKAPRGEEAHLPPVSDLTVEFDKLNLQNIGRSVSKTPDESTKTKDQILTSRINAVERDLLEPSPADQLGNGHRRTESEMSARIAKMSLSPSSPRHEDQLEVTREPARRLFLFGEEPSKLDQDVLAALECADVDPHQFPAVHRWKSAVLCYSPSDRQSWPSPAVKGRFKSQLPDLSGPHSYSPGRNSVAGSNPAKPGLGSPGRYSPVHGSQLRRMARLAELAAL

The target in assay [3] is T3, Δ2-117-ANKLE2-3XFLAG (human) (UniProt Q86XL3).
T3 sequence: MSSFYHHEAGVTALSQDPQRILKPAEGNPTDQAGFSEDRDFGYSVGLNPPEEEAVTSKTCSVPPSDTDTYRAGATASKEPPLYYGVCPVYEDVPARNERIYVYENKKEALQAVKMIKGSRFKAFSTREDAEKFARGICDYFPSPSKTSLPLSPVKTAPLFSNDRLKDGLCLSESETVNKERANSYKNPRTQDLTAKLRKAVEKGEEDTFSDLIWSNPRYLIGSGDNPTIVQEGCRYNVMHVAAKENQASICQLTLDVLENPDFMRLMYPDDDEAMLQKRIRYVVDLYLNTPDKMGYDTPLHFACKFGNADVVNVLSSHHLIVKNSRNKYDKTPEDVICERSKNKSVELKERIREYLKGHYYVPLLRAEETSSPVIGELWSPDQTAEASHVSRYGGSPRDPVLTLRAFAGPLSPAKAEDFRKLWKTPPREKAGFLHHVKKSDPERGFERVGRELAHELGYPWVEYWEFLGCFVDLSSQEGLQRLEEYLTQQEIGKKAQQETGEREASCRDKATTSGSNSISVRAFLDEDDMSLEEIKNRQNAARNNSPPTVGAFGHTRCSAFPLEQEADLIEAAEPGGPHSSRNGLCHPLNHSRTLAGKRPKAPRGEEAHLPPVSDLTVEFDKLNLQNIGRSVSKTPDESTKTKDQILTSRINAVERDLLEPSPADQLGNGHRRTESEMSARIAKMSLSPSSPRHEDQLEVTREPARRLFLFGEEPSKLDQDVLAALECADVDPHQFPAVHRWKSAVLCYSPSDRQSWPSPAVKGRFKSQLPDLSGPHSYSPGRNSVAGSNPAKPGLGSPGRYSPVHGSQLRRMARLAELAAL

Assay [4] has as its target T4, Δ2-252-ANKLE2-3XFLAG (human) (UniProt Q86XL3).
T4 sequence: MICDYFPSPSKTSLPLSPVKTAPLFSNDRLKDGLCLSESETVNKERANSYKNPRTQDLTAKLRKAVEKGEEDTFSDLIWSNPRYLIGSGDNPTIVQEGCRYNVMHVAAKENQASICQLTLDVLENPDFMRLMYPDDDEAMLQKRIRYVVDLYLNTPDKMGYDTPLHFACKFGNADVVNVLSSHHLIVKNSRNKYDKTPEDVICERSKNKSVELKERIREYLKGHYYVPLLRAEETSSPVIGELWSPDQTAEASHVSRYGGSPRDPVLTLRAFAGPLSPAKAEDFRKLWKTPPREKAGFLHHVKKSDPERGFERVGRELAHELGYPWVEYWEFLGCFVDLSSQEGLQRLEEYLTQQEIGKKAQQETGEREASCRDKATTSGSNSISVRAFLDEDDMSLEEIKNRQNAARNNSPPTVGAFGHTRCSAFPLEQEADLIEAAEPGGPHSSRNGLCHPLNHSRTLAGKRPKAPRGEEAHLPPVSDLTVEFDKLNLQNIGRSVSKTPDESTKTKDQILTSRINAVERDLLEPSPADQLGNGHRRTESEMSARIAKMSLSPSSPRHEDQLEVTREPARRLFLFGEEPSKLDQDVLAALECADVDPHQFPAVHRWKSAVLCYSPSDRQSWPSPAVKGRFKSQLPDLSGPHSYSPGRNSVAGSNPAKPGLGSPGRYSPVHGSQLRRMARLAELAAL

For assay [5], the target named is T5, full-length ANKLE2-3XFLAG (Ankyrin repeat and LEM domain-containing protein 2) (human), Q86XL3.
T5 chain: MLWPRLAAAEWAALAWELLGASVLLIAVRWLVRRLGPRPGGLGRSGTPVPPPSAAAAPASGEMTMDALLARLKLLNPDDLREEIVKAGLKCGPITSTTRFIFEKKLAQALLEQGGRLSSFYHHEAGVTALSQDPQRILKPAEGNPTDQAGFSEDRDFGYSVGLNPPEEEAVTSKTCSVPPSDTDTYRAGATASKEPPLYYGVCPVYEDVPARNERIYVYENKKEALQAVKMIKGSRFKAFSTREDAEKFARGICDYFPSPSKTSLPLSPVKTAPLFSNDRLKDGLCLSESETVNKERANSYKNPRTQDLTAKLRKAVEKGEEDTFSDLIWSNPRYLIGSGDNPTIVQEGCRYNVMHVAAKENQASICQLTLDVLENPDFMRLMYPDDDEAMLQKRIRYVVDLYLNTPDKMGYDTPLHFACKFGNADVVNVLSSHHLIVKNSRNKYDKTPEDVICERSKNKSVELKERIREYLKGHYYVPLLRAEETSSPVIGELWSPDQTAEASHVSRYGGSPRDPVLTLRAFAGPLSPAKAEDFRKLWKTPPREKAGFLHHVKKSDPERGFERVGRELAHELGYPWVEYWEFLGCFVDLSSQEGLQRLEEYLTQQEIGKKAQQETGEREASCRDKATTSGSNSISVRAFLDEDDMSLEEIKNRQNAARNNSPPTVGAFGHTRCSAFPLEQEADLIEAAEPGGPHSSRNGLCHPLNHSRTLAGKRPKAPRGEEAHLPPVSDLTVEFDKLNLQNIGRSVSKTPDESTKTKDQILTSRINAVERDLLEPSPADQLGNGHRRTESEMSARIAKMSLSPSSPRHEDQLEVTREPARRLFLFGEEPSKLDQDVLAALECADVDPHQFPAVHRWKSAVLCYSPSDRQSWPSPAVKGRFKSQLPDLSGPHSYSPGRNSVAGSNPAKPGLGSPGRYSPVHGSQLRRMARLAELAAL
The following applies: remark: other sources report otherwise.

B1: barrier-to-autointegration factor (BAF) (protein, UniProt O75531 1-89)
chain: MTTSQKHRDFVAEPMGEKPVGSLAGIGEVLGKKLEERGFDKAYVVLGQFLVLKKDEDLFREWLKDTCGANAKQSRDCFGCLREWCDAFL
Turning to B1, the binding result in assay [1] is “binds”; in assay [2], “binds”; in assay [3] it was “no binding”; in assay [4], “no binding”.

B2: barrier-to-autointegration factor (BAF), O75531 1-89 (protein)
chain: B1 chain
Turning to B2, the binding result in assay [5] was “no binding”.

Source of the values: PMC12724269.
